# Out of some 52,000 compounds screened, about 1,700 (3.3%) were called active. No stated cut-off is given here; in the data, active means survival mostly below about 52% (no sharp cut-off); inactive means mostly above about 56%. This is one part of the list.
# System: Wild type
# Assay: growth inhibition of S. aureus wild type versus tarO mutant, primary screen, teichoic acid synthesis inhibitors, RN4220, OD600 (AID 463173)
# Details: S. aureus RN4220 wild type/DeltatarO growth, OD600, 18 h, hits give low values, screened at 18.75 µg/mL (by protocol)
row,Compound,survival
1,CCOc1ccccc1NC(=O)C1CCN(S(=O)(=O)c2c(C)noc2/C=C/c2ccco2)CC1,inactive: 83%
2,Cc1ccnc(NCc2cccc3ccccc23)c1,inactive: 115%
3,COc1ccc(-c2nc(CNC(=O)NC3CCCCC3)c(C)o2)cc1,inactive: 126%
4,COc1cc(C(CC(=O)Nc2ccc(C)c(F)c2)N2Cc3ccccc3C2=O)cc(OC)c1OC (configuration not stated),inactive: 66%
5,CCN(CC)c1ncnc2c1cnn2-c1cc(Cl)ccc1C,active: -6%
6,O=C(CCn1c(=O)c2ccccc2n(CC(=O)Nc2cccc(F)c2)c1=O)NCCc1ccccc1,inactive: 73%
7,COc1ccc(OC)c(CNC(=O)c2ccc(N3Cc4ccccc4Oc4ncccc43)s2)c1,inactive: 99%
8,COc1cc(OC)cc(-c2cc3nc(C)c(CCC(=O)NCCc4cccc(C)c4)c(C)n3n2)c1,inactive: 92%
9,COc1cc(NC(=O)Cn2nc(C(F)(F)F)c3c2CCC3)cc(OC)c1OC,inactive: 131%
10,CC1CCCN(CCCNC(=O)c2cc(Sc3ccc(F)cc3)nc3ccccc23)C1 (configuration not stated),active: 14%
11,N#Cc1c2c(c(-c3ccccc3)[nH]c1=S)CCCC2,inactive: 94%
12,Cc1noc(-c2ccc(-c3noc(-c4ccc(F)cc4)n3)cc2)n1,inactive: 64%
13,COC(=O)/C(C#N)=C/c1ccc(OC)cc1,inactive: 105%
14,COc1cc(C2Nc3ccccc3-c3cc(C)nn32)ccc1O (configuration not stated),inactive: 139%
15,Cc1ccc(NC(=O)Cn2nc(-c3ccccc3)nc(Cc3ccc(Cl)cc3)c2=O)cc1,inactive: 70%
16,O=C(CCCn1c2ccccc2c(=O)c2ccccc21)Nc1cccc(Cl)c1,inactive: 37%
17,CCOC(=O)c1cccc(NC(=O)CCSCCc2ccccn2)c1,inactive: 68%
18,COc1cccc(CNC(=O)c2cc3c(-c4ccccc4F)nn(C)c3s2)c1,inactive: 70%
19,O=S(=O)(c1ccc(Br)s1)N1CCN(c2cccc(C(F)(F)F)c2)CC1,inactive: 64%
20,Cc1csc2nc(COC(=O)c3ccccc3NC(=O)c3cccc(Br)c3)cc(=O)n12,inactive: 76%
21,COCC(C)NCc1ccc(SC)cc1 (configuration not stated),inactive: 113%
22,O=C(NCCc1ccc(Cl)cc1)c1c2c(nc3ccccc13)C(=O)N(C1CCCCC1)C2,inactive: 81%
23,O=C(NC1CCN(C(=O)Nc2ccccc2C(F)(F)F)CC1)c1ccco1,inactive: 105%

row,Compound,survival
1,COCCn1c(SCC(=O)Nc2cc(Cl)ccc2OC)nc2c([nH]c3ccccc32)c1=O,inactive: 132%
2,COc1ccc(CNC(=O)CCNS(=O)(=O)c2ccc3c(c2)oc(=O)n3C)cc1,inactive: 89%
3,CCCCCCn1nnc2sc(-c3ccccc3)cc2c1=O,inactive: 113%
4,CC1CCN(CC2CCN(C(=O)NCc3ccccc3)CC2)CC1,inactive: 69%
5,CCC1CN(C(=O)Nc2ccccc2F)c2cc(C)ccc2O1 (configuration not stated),inactive: 77%
6,CCOc1ccc(-c2nc(Cn3c(=O)cc(C)c4c(C)nn(-c5ccccc5)c43)c(C)o2)cc1,active: 14%
7,Cc1ccccc1C(=O)Nc1cc(C)c(O)c(-c2nc3ccccc3o2)c1,inactive: 75%
8,COc1cc(C)ccc1OCCSc1nc2ccc(NC(=O)c3ccco3)cc2s1,inactive: 78%
9,CCN1c2ccccc2-c2nc(SCC(=O)Nc3cccc(C)c3C)ncc2S1(=O)=O,inactive: 78%
10,CCn1cc(C(=O)N(C)Cc2ccccc2)c(=O)c2cc(S(=O)(=O)N3CCc4ccccc4C3)ccc21,inactive: 72%
11,COc1ccc(C2CC(=O)c3cc(-c4nc(-c5cccc([N+](=O)[O-])c5)cs4)c(=O)n(-c4ccccc4)c3C2)cc1 (configuration not stated),inactive: 72%
12,O=C(NCCc1ccccc1)c1ccc2c(c1)N(Cc1ccc(Cl)cc1)C(=O)CS2,inactive: 175%
13,Cc1nn(C)c(C)c1S(=O)(=O)N(CC(=O)NCCc1ccccc1)c1ccc(C(C)C)cc1,inactive: 86%
14,COc1cccc(C(=O)NCC2OCCc3ccccc32)c1 (configuration not stated),inactive: 70%
15,CCc1ccc(NC(=O)CSc2ccnc(=O)[nH]2)cc1,inactive: 83%
16,CCc1ccc(NC(=O)CN2C(=O)CSC2=O)cc1,inactive: 98%
17,Cc1ccc(C(=O)c2cn(Cc3cccc(Cl)c3)c3nc(C)ccc3c2=O)cc1,inactive: 65%
18,CCCCNC(=O)c1nn(C)c2c1CSc1ccccc1-2,inactive: 79%
19,COc1ccc(NC(=O)c2ccco2)cc1NC(=O)COc1ccc(C)c(C)c1,inactive: 84%
20,C=CCN=C1SCC(=O)N1S(=O)(=O)c1ccc(C)cc1,inactive: 113%
21,O=C(CSCc1ccc(F)cc1)N1CCN(c2ccccc2F)CC1,inactive: 99%
22,Cc1cc2c(cc1S(=O)(=O)NCc1ccc(F)cc1)n(C)c(=O)c(=O)n2C,inactive: 85%
23,Cc1ccc(-c2nn3c(-c4ccccc4C)nnc3c3ccccc23)cc1,inactive: 51%

row,Compound,survival
1,CC(C)c1nc2ccccn2c1NC1CCCCC1,inactive: 101%
2,CCOC(=O)c1cc(-c2ccccc2)n(-c2cccc(C(=O)Nc3cccc(SC)c3)c2)c1C,active: 0%
3,Cc1cn2c(=O)cc(COC(=O)c3ccc(NC(=O)COc4ccccc4C)cc3)nc2s1,inactive: 76%
4,COc1ccc(CCC(=O)NCCc2csc(-c3ccc(F)cc3)n2)cc1,inactive: 73%
5,CCOC(=O)c1oc2ccc(Br)cc2c1N,inactive: 107%
6,COc1ccc(OC)c(NC(=O)CSc2nc(=O)n(CCN(C)C)c3c2CCC3)c1,inactive: 76%
7,CCc1ccccc1NC(=O)N1CCOc2ccccc21,inactive: 112%
8,CCCOc1ccc(C2C(=O)N(C3CCCCCC3)CC(=O)N2Cc2ccccc2OC)cc1OC (configuration not stated),inactive: 87%
9,O=C(Cn1ncc2c([nH]c3ccccc32)c1=O)NCCCN1CCN(c2ccc(F)cc2)CC1,inactive: 85%
10,CCCn1c2ccccc2c2cnn(CC(=O)Nc3cc(C)c(Cl)cc3OC)c(=O)c21,inactive: 133%
11,CCc1ccc(-n2c(=O)c3c4c(sc3n(Cc3ccccc3C#N)c2=O)CCCC4)cc1,inactive: 140%
12,CC1CCc2c(sc(NC(=O)Cc3ccccc3)c2C(=O)Nc2ccc(Cl)cc2)C1 (configuration not stated),inactive: 70%
13,COc1ccc(CCCc2nnc(SCC(=O)Nc3cccc(F)c3C)o2)cc1,inactive: 75%
14,CCOC(=O)C1CCCN(C(=O)c2ccc3c(c2)sc2nc(-c4cccc(OC)c4)cn23)C1 (configuration not stated),inactive: 86%
15,CCOCCc1nn2c(=O)cc(COC(=O)c3ccccc3OC)nc2s1,inactive: 78%
16,COCCCn1c(SCc2cccc(Cl)c2)nc2c(sc3ccccc32)c1=O,inactive: 133%
17,Cc1ccccc1-c1noc(CSc2nc3ccccc3[nH]2)n1,inactive: 59%
18,O=C(NCCc1ccccc1)c1cc(Nc2ccccc2)nc2ccccc12,inactive: 67%
19,Cc1cc(=O)n2nc(N(C)CC(=O)NCc3ccccc3C)sc2n1,inactive: 88%
20,CCCC(=O)Nc1cccc(OCc2cc(=O)n3cccc(C)c3n2)c1,inactive: 72%
21,CCc1ccccc1Nc1nn2c(=O)c3ccc(C(=O)NCCC4=CCCCC4)cc3nc2s1,inactive: 135%
22,CCOCCc1nnc(NC(=O)C(=O)c2cc(C)n(-c3ccc(C)cc3C)c2C)s1,inactive: 85%
23,Cc1ccc(S(=O)(=O)N2C(=O)CCC2C(=O)N2CCCC2)cc1 (configuration not stated),inactive: 102%

row,Compound,survival
1,Cn1ncc(N)c1C(=O)N1CCOCC1,inactive: 111%
2,CN(C)C(=O)CNCC1CCCO1 (configuration not stated),inactive: 89%
3,COc1ccc(N(CC(=O)Nc2cccc(Cl)c2)S(=O)(=O)c2c(C)[nH]c(=O)[nH]c2=O)cc1,inactive: 76%
4,CCOc1ccc(Nc2nc(-c3cccc(Cl)c3)c3c(n2)-c2ccccc2OC3)cc1,inactive: 92%
5,COc1ccc2c(c1)c1c(c(=O)n(Cc3ccccc3)c(=O)n1CC(=O)Nc1ccccc1OC)n2C,inactive: 71%
6,CCn1c(C)c(C)c2cc(C(=O)NCC(C)c3ccccc3)ccc21 (configuration not stated),inactive: 99%
7,O=C(c1ccc2c(Cl)c3c(nc2c1)CCCC3)N1CCN(c2ccc(Cl)cc2)CC1,inactive: 90%
8,COc1ccc(N2CCN(CCCNC(=O)C3COc4ccccc4C3)CC2)cc1 (configuration not stated),inactive: 129%
9,O=C(Nc1nc2c(F)cc(F)cc2s1)c1ccc(S(=O)(=O)N2CCc3ccccc32)cc1,inactive: 82%
10,Cc1ccc(CNC(=O)CSc2nc3c(sc4ccccc43)c(=O)n2CCCC(=O)NCCO)cc1,inactive: 87%
11,CCc1ccccc1N=C1SCC(=O)N1C,inactive: 92%
12,O=C(Nc1ccc(F)cc1)Nc1csc2c1CCCC2,inactive: 12%
13,COC(=O)c1ccc(N2C(=O)Cc3cc(OC)c(OC)cc3C2c2ccc(F)cc2)cc1 (configuration not stated),inactive: 78%
14,CCN1C(C(=O)c2ccccc2)=C(OC(=O)COc2ccc(C)cc2)c2ccccc2S1(=O)=O,inactive: 85%
15,CCOc1ccc(-n2c(=O)c3c4c(sc3n(CC(=O)NC(C)CC)c2=O)CCCCC4)cc1 (configuration not stated),inactive: 91%
16,Cc1c(CCNC(=O)c2c(F)cccc2F)sc2nc(-c3ccc(F)cc3)nn12,inactive: 127%
17,CCOc1ccc(CCn2c3c(c(=O)[nH]c2=O)C(NC(=O)c2cccc(F)c2)(C(F)(F)F)C(=O)N3)cc1OCC (configuration not stated),inactive: 91%
18,O=C(NCc1cccnc1)c1cccc(C(=O)NCc2cccnc2)c1,inactive: 110%
19,COc1cc(-c2nc3sccn3c2Nc2c(C)cccc2C)ccc1O,inactive: 108%
20,Cc1nc2c3cc(F)ccc3n(C)c2s1,inactive: 105%
21,Cn1ncc2c(N3CCN(c4ccc(F)cc4)CC3)ncnc21,inactive: 73%
22,O=C(Cc1ccc(-c2ccccc2)cc1)NCCS(=O)(=O)N1CCN(c2ccc(F)cc2)CC1,inactive: 73%
23,CC(=O)N1CCCc2ccc(NS(=O)(=O)c3cccc(Cl)c3)cc21,inactive: 74%

# — PubChem BioAssay AID463173 (ICCB-Longwood Screening Facility, Harvard Medical School, 2010)
